Here are results for 31 compounds from PubChem BioAssay AID1240 (Sanford-Burnham Center for Chemical Genomics, 2008).

The whole screen tested about 50,000 compounds, of which about 800 (1.6%) showed an effect of 50% or more. This is one part of the list.

This assay concerns the target Bcl-2-like protein 10 (Homo sapiens) (UniProt Q9HD36). Nature of the assay: Phenotype converters, Bcl-B/TR3 peptide binding displacement, primary biochemical FP (AID 1240).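 Further: 0% = Bcl-B with tracer peptide and DMSO and 100% = tracer peptide lacking Bcl-B.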 Particulars: GST-Bcl-B / FITC-TR3 peptide fluorescence polarization; stronger effect = higher value; compound at 3.75 mg/L.
UniProt Q9HD36, sequence (Q9HD36 whole entry, looked up): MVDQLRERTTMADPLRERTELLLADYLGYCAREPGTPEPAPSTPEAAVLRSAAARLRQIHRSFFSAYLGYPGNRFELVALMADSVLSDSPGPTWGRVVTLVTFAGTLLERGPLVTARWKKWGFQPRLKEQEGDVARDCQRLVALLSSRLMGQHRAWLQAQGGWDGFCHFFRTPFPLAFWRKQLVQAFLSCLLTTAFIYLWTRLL
Take `COc1ccc(Cl)cc1C(=O)Nc1cccc(Br)c1`: the displacement came out at 14.5%.

In the case of `COc1cc(OC)c(OC)cc1CN1CCN(C(=O)c2cccs2)CC1`, the displacement was -9.9%.

Consider `O=C(N=Nc1c(O)[nH]c(=O)[nH]c1=O)c1ccc2c(c1)OCO2`, for which the displacement stood at 49.9%.

As for `COC(=O)c1ccccc1NS(=O)(=O)c1cccs1`, the displacement is 0.8%.

As to `Cc1ccc(NC(=O)/C=C/c2ccccc2)c([N+](=O)[O-])c1`, the displacement came to 2.8%.

With `CSc1nnc(-c2ccc(C)cc2)o1`, the displacement was found to be 11.4%.

Regarding `CC(C)c1ccc(NC(=O)c2cccnc2)cc1`, the displacement was 7.4%.

Turning to `O=C(CSc1nc2sc3c(c2c(=O)[nH]1)CCCC3)N1CCCC1`, the displacement was -4.9%.

In the case of `Cc1ccc2c(c1)c1c3n2CCN(CCC(=O)O)C3CCC1` (stereo unspecified), the displacement was 12.2%.

As for `COc1ccc(/C=C2\SC(=S)N(CCCC(=O)Nc3ccc(O)cc3)C2=O)cc1`, the displacement stood at 8.1%.

With `Cc1ccc(/C=N/NS(=O)(=O)c2ccc(Cl)cc2)cc1`, the displacement was -1.7%.

Take `COc1ccccc1C/C(N)=N/OC(=O)c1cccc(Br)c1`: the displacement was 2.9%.

On to `O=[N+]([O-])c1ccc(O)c(/C=N/Nc2nc(-c3ccc(Br)cc3)cs2)c1`, for which the displacement was -8.8%.

Turning to `CCN(CC)c1ccc(NC(=S)Nc2ccc(F)cc2)cc1`, the displacement was -2.8%.

Take `COc1ccc(N=C2SC(C(=O)N3CCN(c4ccccn4)CC3)CC(=O)N2C)cc1` (stereo unspecified): the displacement is -7.6%.

With `N#CC(c1ccc(O)cc1)N1CCOCC1` (stereo unspecified), the displacement was -3.5%.

In the case of `CCOC(=O)NC(NCc1ccccc1)(C(F)(F)F)C(F)(F)F`, the displacement stood at 11.1%.

Turning to `COc1cc(C2SCC(=O)N2CCN2CCCCC2)cc([N+](=O)[O-])c1O` (stereo unspecified), the displacement came out at 11.6%.

With `Cc1ccc(C2CC(C(F)(F)F)n3nc(C(=O)N4CCN(c5ccccc5)CC4)cc3N2)cc1` (stereo unspecified), the displacement stood at 1%.

As to `Cc1cccc(N2C(=O)C3C4c5ccccc5C(C)(c5ccccc54)C3C2=O)c1C` (stereo unspecified), the displacement is -13.6%.

With `O=[N+]([O-])c1cc(S(=O)(=O)Nc2cc(Cl)ccc2Cl)ccc1Cl`, the displacement is -9.6%.

As to `C=CCOC(=O)C1=C(C)N(CC)C(=O)NC1c1ccc(Br)cc1` (stereo unspecified), the displacement stood at 12.2%.

With `O=C(c1ccc(F)cc1)N1CCN(C(=O)c2ccc([N+](=O)[O-])cc2)CC1`, the displacement came to 11%.

In the case of `COc1ccc(NC(=O)C2=C(C)NC(=O)NC2c2ccccc2Br)cc1` (stereo unspecified), the displacement is -10.8%.

On to `COC(=O)C1=C(C)NC2=C(C(=O)c3ccccc32)C1c1ccc(OCc2ccc(F)cc2)c(OC)c1` (stereo unspecified), for which the displacement was determined as 10.7%.

As for `O=C(Nc1c[nH]c(=O)[nH]c1=O)c1cccc([N+](=O)[O-])c1`, the displacement turned out to be 3%.

In the case of `O=C1CCCC2=C1C(c1ccc(F)cc1)Nc1ccccc1N2` (stereo unspecified), the displacement is -5.1%.

For `O=C(COc1ccccc1)NCCCn1ccnc1`, the displacement came to 4.7%.

Take `Cc1cccnc1N(C(=O)c1cccc(Cl)c1)C(=O)c1cccc(Cl)c1`: the displacement is -3.2%.

Turning to `CCOC(=O)c1sc(NC(=O)c2ccccc2C)nc1C`, the displacement amounted to 0%.

On to `Nc1nc(CN2C(=O)c3ccccc3C2=O)cs1`, for which the displacement was -5.3%.
